In PubChem BioAssay AID1477 (National Center for Advancing Translational Sciences (NCATS), 2009):
The whole screen tested about 230,000 compounds, of which fewer than 10 were called active. The inconclusive results got no clear call from the source; some entries with a clear call stand among them for comparison. Calls follow the shape of the dose curve; as a rule, active = well fitted curve in the direction sought with a large enough effect; inconclusive = small, poorly fitted or top-dose-only effect, or effect the other way, or another doubt; inactive = no such curve, though single readings can be large or run the other way. Potencies of inconclusive entries are left out as doubtful fits.

biological target: Runt-related transcription factor 1 (Homo sapiens) + Core-binding factor subunit beta (Homo sapiens) (UniProt Q01196+Q13951); assay: qHTS Assay for Compounds Blocking the Interaction Between CBF-beta and RUNX1 for the Treatment of Acute Myeloid Leukemia; conditions: AlphaScreen CBFb-His/RUNX1-biotin binding, biochemical; activity, negative = inhibition: at 59.8 µM (top of the series) unless noted; as to activity, negative = inhibition: % of control where 0% means no effect
Method in brief: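 His-tagged CBF-beta and biotinylated RUNX1 (30 nM each) were premixed 20 min at room temperature, exposed to compound for 15 min, then given nickel-chelate and streptavidin AlphaScreen beads (50 ng each). After 90 min, AlphaScreen signal was read.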

Sequence of UniProt Q01196 (Q01196 whole entry, looked up): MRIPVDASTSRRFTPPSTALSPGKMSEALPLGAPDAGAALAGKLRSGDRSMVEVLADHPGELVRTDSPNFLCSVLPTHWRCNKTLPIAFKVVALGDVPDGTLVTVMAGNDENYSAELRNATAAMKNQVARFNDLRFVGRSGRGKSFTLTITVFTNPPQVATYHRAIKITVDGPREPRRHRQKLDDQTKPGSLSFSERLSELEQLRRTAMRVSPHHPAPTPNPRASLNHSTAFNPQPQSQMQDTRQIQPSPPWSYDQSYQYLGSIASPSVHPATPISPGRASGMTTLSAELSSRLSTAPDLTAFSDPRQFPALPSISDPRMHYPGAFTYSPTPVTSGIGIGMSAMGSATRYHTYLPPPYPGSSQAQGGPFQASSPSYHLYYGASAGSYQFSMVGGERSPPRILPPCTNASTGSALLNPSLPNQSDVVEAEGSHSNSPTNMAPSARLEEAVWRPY
Sequence of UniProt Q01196 (Q13951 whole entry, looked up): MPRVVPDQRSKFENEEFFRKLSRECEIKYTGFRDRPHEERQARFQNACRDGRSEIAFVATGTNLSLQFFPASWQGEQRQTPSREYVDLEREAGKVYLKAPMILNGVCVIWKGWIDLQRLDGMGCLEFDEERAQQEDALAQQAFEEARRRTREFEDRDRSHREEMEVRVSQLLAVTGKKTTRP

| SMILES | Potency | activity, negative = inhibition |
| --- | --- | --- |
| CCCCCc1cc(=O)oc2c(C(CCN3CCCC(C)C3)c3ccc(N(C)C)cc3)c(OC)cc(OC)c12 (configuration not stated) | inconclusive [inhibitor, partial curve] |  |
| Clc1ccc(OCc2cc(-c3ccccc3)no2)cc1Cl | inconclusive [activator, single point] |  |
| CCCCC[C@H](O)/C=C/[C@@H]1[C@@H](C/C=C\CCCC(=O)O)[C@@H](O)C[C@@H]1O | inactive |  |
| CC(=O)Nc1ccc(SCC(=O)c2c(N)n(Cc3ccccc3)c(=O)n(C)c2=O)cc1 | inactive |  |
| O=C(COc1cc(Cl)c(Cl)cc1Cl)N1CCN(c2ccccn2)CC1 | inactive |  |
| COc1ccc(N/N=C(\C=N\O)C(=O)c2ccc(OC)cc2)cc1 | inconclusive [inhibitor, single point] |  |
| CCN(CC)c1ccc2cc(-c3nc(-c4ccc(OC)cc4)cs3)c(=O)oc2c1 | inconclusive [activator, partial curve] |  |
| Oc1ccc(/C=N/N2CCN(C3c4ccccc4-c4ccccc43)CC2)c(O)c1 | inconclusive [inhibitor, single point] |  |
| CC(=O)Nc1ccn(C2OC(C(COC(C)=O)NC(=O)C(COCc3ccccc3)NC(=O)OC(C)(C)C)C(OC(C)=O)C2OC(C)=O)c(=O)n1 (configuration not stated) | inactive |  |
| Clc1cccc(Cl)c1CSc1nnc(/C=C/c2ccccc2)o1 | inconclusive [activator, single point] |  |
| CCCCC1=CC2=C(OC(C)=O)C(=O)C(C)(OC(=O)C3CCCC3)C(=O)C2=CO1 (configuration not stated) | inconclusive [inhibitor, single point] |  |
| COC(=O)C1C2C=CC3(CN(CCc4ccccc4)C(=O)C13)O2 (configuration not stated) | inactive |  |
| COC(=O)CSc1nnc(-c2ccccn2)n1N | inconclusive [inhibitor, single point] |  |
| COc1cccc(C(=O)Nc2ccc(-c3nc4ccccc4o3)c(O)c2)c1 | inactive |  |
| O=C1ON=C(c2ccccc2)/C1=C\c1ccco1 | inconclusive [inhibitor, single point] |  |
| COC(=O)c1ccc(-c2sc3nc(N4CCOCC4)c4c(c3c2N)CCCC4)o1 | inconclusive [activator, single point] |  |
| C[C@@H]1CC2(OC[C@]3(C)O[C@H]23)O[C@H]2C[C@@]3(C)[C@@H]4CC[C@H]5C(C)(C)C(O[C@@H]6OC[C@@H](O)[C@H](O)[C@H]6O)CC[C@@]56C[C@@]46CC[C@]3(C)[C@@H]12 (some centres not stated) | inactive |  |
| COc1ccc(C2(C)NC(=O)N(Cc3cc(Cl)cc4c3OCOC4)C2=O)cc1OC (configuration not stated) | inactive |  |
| COc1ccc(N=c2cc(-c3ccc(OC)cc3)oc3ccccc23)cc1 | inconclusive [inhibitor, partial curve] |  |
| CCCCC/C=C\C/C=C\C/C=C\C/C=C\CCCCCC(=O)NC(C)C(=O)O (configuration not stated) | inactive |  |
| S=C(Nc1cccc(Br)c1)c1ccccc1 | inconclusive [inhibitor, single point] |  |
| COCCOCC(O)CN1CCN(c2ccccc2)CC1 (configuration not stated) | inactive |  |
| CCC(C(=O)OCC(=O)Nc1ccccc1-c1ccccc1)c1ccccc1 (configuration not stated) | inconclusive [activator, single point] |  |

| SMILES | Potency | activity, negative = inhibition |
| --- | --- | --- |
| COc1ccc(-n2c(N)c(C(=O)NCc3ccco3)c3nc4ccccc4nc32)cc1 | inconclusive [activator, single point] |  |
| Cc1ccc(C)c(N=Cc2ccc(-c3ccc([N+](=O)[O-])cc3)o2)c1 | inconclusive [inhibitor, single point] |  |
| Cc1ccn2c(NCc3ccccc3)c(-c3cccs3)nc2c1 | inactive |  |
| Cc1cccc2sc(NNC(=O)c3ccc(S(=O)(=O)N4CCc5ccccc5C4)cc3)nc12 |  | inactive: 8.23% [at 2.36 µM] |
| CC(/C=N/NC(=O)CSc1nnc(SCc2ccccc2)s1)=C\c1ccco1 | inconclusive [inhibitor, single point] |  |
| S=c1[nH]nc(-c2ccccc2)o1 | inconclusive [inhibitor, single point] |  |
| CC(C)n1c2ccccc2c2nc3ccccc3nc21 | inconclusive [activator, partial curve] |  |
| NC(=O)c1ccc(NC(=O)CCc2nc3ccccc3s2)cc1 | inconclusive [inhibitor, single point] |  |
| Nc1cc2c(cc1C(=O)c1cccc(Br)c1)OCCO2 | inconclusive [inhibitor, single point] |  |
| COc1ccc(C2C(C#N)=C(C)NC3=C2C(=O)c2ccccc23)cc1 (configuration not stated) | inactive |  |
| O=C(O)Cc1ccc(NC(=O)C2CC=CCC2C(=O)O)cc1 (configuration not stated) | inconclusive [inhibitor, single point] |  |
| CC(CNC(=S)Nc1cc(F)cc(F)c1)CSc1ccc(Cl)cc1 (configuration not stated) | inactive |  |
| COc1cccc(C2CC3(CC(C)(C)NC(=S)N3)Oc3cc(O)ccc32)c1 (configuration not stated) | inconclusive [inhibitor, partial curve] |  |
| CCOc1ccc(OCc2ccc(C(=O)N/N=C(\C)c3ccccn3)cc2)cc1 | inconclusive [inhibitor, partial curve] |  |
| CC(C)CC(NC(=O)c1ccc(Cl)cc1)C(=O)O (configuration not stated) | inactive |  |
| COc1ccc(Cc2nn3c(-c4ccccc4OC)nnc3s2)cc1 | inactive |  |
| CCOc1ccc(N(C)S(=O)(=O)c2ccc3[nH]cc(C(=O)NCC4CCCO4)c(=O)c3c2)cc1 (configuration not stated) | inactive |  |
| O=C(Nc1ccc(Nc2ccncc2)cc1)c1ccc(Nc2ccnc3ccc([N+](=O)[O-])cc23)cc1 | inconclusive [activator, full curve] |  |
| COCCOC(=O)c1c(C)oc2ccc(OCc3ccccc3)cc12 | inconclusive [activator, partial curve] |  |
| CCOC(=O)CSc1nc(-c2ccc3c(c2)OCO3)ccc1C#N | inconclusive [activator, partial curve] |  |
| O=C1[C@H]2[C@H](ON3CCCC[C@H]23)C(=O)N1c1ccc(Cl)cc1 | inconclusive [inhibitor, single point] |  |
| NCCCC[C@H](N)C(=O)N[C@@H](CCCN=C(N)N)C(=O)N1CCC[C@H]1C(=O)N1CCC[C@H]1C(=O)NCC(=O)N[C@@H](Cc1ccccc1)C(=O)N[C@@H](CO)C(=O)N1CCC[C@H]1C(=O)N[C@@H](Cc1ccccc1)C(=O)O | inactive |  |
| O=C(N/N=C\C1C(=O)NC(=S)N(c2ccccc2)C1=O)c1ccc(O)cc1 (configuration not stated) | inconclusive [inhibitor, single point] |  |

| SMILES | Potency | activity, negative = inhibition |
| --- | --- | --- |
| Cc1cccc(N(C(=O)CCC(=O)Nc2nccs2)C(C(=O)NC(C)(C)C)c2ccc(O)cc2)c1 (configuration not stated) | inactive |  |
| Cc1nnc(NC(=O)CCNC(=O)c2ccccc2Cl)s1 | inconclusive [inhibitor, single point] |  |
| COc1ccc(/C=C2\CCC/C(=C\C=N\N(C)C)C2=O)cc1 | inconclusive [inhibitor, full curve, poor fit] |  |
| Cn1c(/C=N/Nc2nc3ccccc3[nH]2)nc2ccccc21 | inconclusive [inhibitor, partial curve] |  |
| COc1ccc(NC(=O)Nc2sc(NS(=O)(=O)c3ccccc3)nc2C)cc1 | inconclusive [inhibitor, single point] |  |
| CCOC(=O)C1=C(N)OC2=C(C(=O)CC(C)(C)C2)C1c1cc(CSc2nnnn2C)cs1 (configuration not stated) | inactive |  |
| O=S(=O)(NCCSc1ccc(Cl)cc1)c1ccc2c(c1)OCCO2 | inactive |  |
| Cc1cc(C)c(-c2cc([C@H](C)O/N=C3/[C@H]4OC4[C@@H](O)[C@H]4[C@H]3CCn3c(=O)n(-c5ccccc5)c(=O)n34)on2)c(C)c1 (some centres not stated) | inconclusive [activator, single point] |  |
| O=C(c1ccc(CNS(=O)(=O)c2cccc(Cl)c2)cc1)N1CCCC1 | inactive |  |
| CCOC(=O)C1CCN(Cc2ccc(OC)cc2OC)CC1 | inactive |  |
| O=[N+]([O-])c1cccc(-c2cn(-c3ccccc3)c(=S)[nH]2)c1 | inconclusive [activator, single point] |  |
| O=C1C(Cl)=C(NC2CCc3ccccc32)C(=O)c2ncccc21 (configuration not stated) | inconclusive [inhibitor, single point] |  |
| C/C=C\C(=O)Nc1cccc(C2=NOC3(C2)C[C@H](C(N)=O)N(C(=O)[C@H]2CCC(=O)N2)C3)c1 (some centres not stated) | inconclusive [inhibitor, single point] |  |
| CCCCNc1c2c3c(cccc3n(C)c1=O)C(=O)c1ccccc1-2 | inconclusive [activator, partial curve] |  |
| Cc1nc(Nc2ccccc2)c2nc(-c3ccccc3)n(CCCN3CCCCC3C)c2n1 (configuration not stated) | inactive |  |
| CC(C)OC(=O)c1cccnc1N1CCN(c2cccc(Cl)c2)CC1 | inconclusive [activator, single point] |  |
| CSc1ccc(S(=O)(=O)N(CC(=O)NN=C2CCN(C)CC2)c2ccc(C)cc2)cc1 | inactive |  |
| O=C1NC(=O)N(Cc2ccc(F)cc2)C(=O)/C1=C\c1ccc([N+](=O)[O-])s1 | inconclusive [inhibitor, single point] |  |
| COc1ccc(N2CCN(C(c3ccccc3)c3nnnn3Cc3ccc(F)cc3)CC2)cc1 (configuration not stated) | inconclusive [inhibitor, single point] |  |
| CCOC(=O)C(=O)Nc1cc([N+](=O)[O-])ccc1C | inactive |  |
| N#CC1=C2N=C(N)c3c(sc4c3CCCCC4)N2C2=C(C(=O)CCC2)C1c1ccccc1 (configuration not stated) | inconclusive [inhibitor, single point] |  |
